The record followed here is the supplement of paper PMC4604168 (melanoma cell lines).

The list shows a part of the results. Single values are uncertain, as repeats are few or missing.

Test systems include 501Mel; A101D; A2058; A375.
What all share (test): cell count relative to DMSO control; melanoma cells; higher = more viable cells
What all share (details): library dose: standard library concentration; 72 h
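Also: cells treated in 1,536-well plates, then fixed and DAPI-stained, with nuclei counted from automated high-throughput microscope images.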

As for `Cn1c(=O)n(-c2ccc(C(C)(C)C#N)cc2)c2c3cc(-c4cnc5ccccc5c4)ccc3ncc21` + Oc1nc(-c2ccc(C(F)(F)F)cc2)nc2c1CSCC2 [XAV939] (first compound 0.02 µM, partner dose 10 µM), the cell count turned out to be 68.5% with 501Mel, 65.7% in the assay on A101D, 62.6% with A2058 and 88.6% with A375.
Taken in the same sequence, the figures for `Cc1cn(-c2cc(NC(=O)c3ccc(C)c(Nc4nccc(-c5cccnc5)n4)c3)cc(C(F)(F)F)c2)cn1` [nilotinib] + O=c1cc(-c2cccc3c2Sc2ccccc2S3)oc(N2CCOCC2)c1 [KU55933] (first compound 1 µM, partner dose 5 µM) were 86.9%, 83.2%, 91.6% and 119%.
The matching figures for `COc1ccc(C2=N[C@@H](c3ccc(Cl)cc3)[C@@H](c3ccc(Cl)cc3)N2C(=O)N2CCNC(=O)C2)c(OC(C)C)c1` [Nutlin-3] + O=c1cc(-c2cccc3c2Sc2ccccc2S3)oc(N2CCOCC2)c1 [KU55933] (first compound 0.5 µM, partner dose 5 µM): 59.9%, 57.9%, 83% and 94.1%.
The matching figures for `Cc1cc(Nc2cc(N3CCN(C)CC3)nc(/C=C/c3ccccc3)n2)n[nH]1` + O=C(Nc1ccccc1)c1cc([N+](=O)[O-])ccc1Cl [GW9662] (first compound 0.2 µM, partner dose 10 µM): 63.3%, 74%, 74.6% and 105%.
For the compound `Cc1cc(Nc2cc(N3CCN(C)CC3)nc(/C=C/c3ccccc3)n2)n[nH]1` + CCN(CC)CCCCNc1ncc2cc(-c3cc(OC)cc(OC)c3)c(NC(=O)NC(C)(C)C)nc2n1 [PD173074] (first compound 0.2 µM, partner dose 0.5 µM), the cell count was found to be 99.1% in the assay on 501Mel, 92.7% in the assay with A101D, 92.7% in the assay with A2058 and 102% in the assay with A375.
In the case of `Cc1cn(-c2cc(NC(=O)c3ccc(C)c(Nc4nccc(-c5cccnc5)n4)c3)cc(C(F)(F)F)c2)cn1` [nilotinib] + COc1ccc2c(c1)CCC1C2CCC2(C)C(NCCCCCCN3C(=O)C=CC3=O)CCC12 [U73122] (first compound 1 µM, partner dose 2 µM), the cell count in the assay with 501Mel amounted to 108%; in the assay on A101D, 66.2%; in the assay with A2058, 4.33%; with A375, 103%.
Taken in the same sequence, the figures for `Cc1cn(-c2cc(NC(=O)c3ccc(C)c(Nc4nccc(-c5cccnc5)n4)c3)cc(C(F)(F)F)c2)cn1` [nilotinib] + COc1ccc(COc2ccc(Cc3cnc(N)nc3N)cc2OC)cc1 [GW2580] (first compound 1 µM, partner dose 5 µM) were 72.4%, 92.6%, 117% and 95.3%.
The matching figures for `Cc1cc(Nc2cc(N3CCN(C)CC3)nc(/C=C/c3ccccc3)n2)n[nH]1` + O=C1NC(=O)/C(=C/c2ccc(-c3ccc(F)cc3O)o2)S1 [AS252424] (first compound 0.2 µM, partner dose 5 µM): 89.6%, 79.6%, 86.5% and 139%.
The matching figures for `COc1ccc(C2=N[C@@H](c3ccc(Cl)cc3)[C@@H](c3ccc(Cl)cc3)N2C(=O)N2CCNC(=O)C2)c(OC(C)C)c1` [Nutlin-3] + COc1cc(N2CCC(N3CCN(C)CC3)CC2)ccc1Nc1ncc(Cl)c(Nc2ccccc2S(=O)(=O)C(C)C)n1 [NVP-TAE684] (first compound 0.5 µM, partner dose 0.4 µM): 71%, 58.3%, 60.6% and 83.4%.
Turning to `COc1ccc(C2=N[C@@H](c3ccc(Cl)cc3)[C@@H](c3ccc(Cl)cc3)N2C(=O)N2CCNC(=O)C2)c(OC(C)C)c1` [Nutlin-3] + c1cc(-c2cnn3cc(-c4ccc(OCCN5CCCCC5)cc4)cnc23)ccn1 [Dorsomorphin] (first compound 0.5 µM, partner dose 2 µM), the cell count in the assay with 501Mel was 55.7%; in the assay on A101D it was 65.6%; in the assay on A2058, 81.5%; with A375 it was 54.2%.
Taken in the same sequence, the figures for `Cc1cn(-c2cc(NC(=O)c3ccc(C)c(Nc4nccc(-c5cccnc5)n4)c3)cc(C(F)(F)F)c2)cn1` [nilotinib] + CCN(CC)CCCCNc1ncc2cc(-c3cc(OC)cc(OC)c3)c(NC(=O)NC(C)(C)C)nc2n1 [PD173074] (first compound 1 µM, partner dose 0.5 µM) were 89.9%, 83.2%, 102% and 132%.
In the case of `Cc1cn(-c2cc(NC(=O)c3ccc(C)c(Nc4nccc(-c5cccnc5)n4)c3)cc(C(F)(F)F)c2)cn1` [nilotinib] + c1cc(-c2cnn3cc(-c4ccc(OCCN5CCCCC5)cc4)cnc23)ccn1 [Dorsomorphin] (first compound 1 µM, partner dose 2 µM), the cell count in the assay on 501Mel is 62.5%; in the assay with A101D, 78.4%; with A2058 it was 87.8%; in the assay on A375 it was 98.6%.
The matching figures for `CC(C)C[C@H](NC(=O)[C@H](Cc1ccccc1)NC(=O)c1cnccn1)B(O)O` [Bortezomib] + COC(=O)c1sccc1S(=O)(=O)Nc1ccc(Nc2ccccc2)cc1OC [GSK0660] (first compound 0.005 µM, partner dose 5 µM): 5.28%, 13.6%, 8.03% and 82.9%.
The matching figures for `COc1ccc(C2=N[C@@H](c3ccc(Cl)cc3)[C@@H](c3ccc(Cl)cc3)N2C(=O)N2CCNC(=O)C2)c(OC(C)C)c1` [Nutlin-3] + O=C1NC(=O)/C(=C/c2ccc(-c3ccc(F)cc3O)o2)S1 [AS252424] (first compound 0.5 µM, partner dose 5 µM): 80.1%, 69%, 98.2% and 103%.
The matching figures for `Cn1c(=O)n(-c2ccc(C(C)(C)C#N)cc2)c2c3cc(-c4cnc5ccccc5c4)ccc3ncc21` + Oc1cc(-c2nc(-c3ccccc3)[nH]c2-c2ccncc2)ccc1Cl [L779450] (first compound 0.02 µM, partner dose 1 µM): 52.6%, 61.7%, 41.3% and 64.2%.
For `Cc1cn(-c2cc(NC(=O)c3ccc(C)c(Nc4nccc(-c5cccnc5)n4)c3)cc(C(F)(F)F)c2)cn1` [nilotinib] + CCCCCCCCCCCC1=C(O)C(=O)C=C(O)C1=O [Embelin] (first compound 1 µM, partner dose 6 µM), the cell count in the assay with 501Mel is 74.8%; in the assay on A101D, 75.8%; with A2058, 91%; in the assay on A375 it was 109%.
Taken in the same sequence, the figures for `Cn1c(=O)n(-c2ccc(C(C)(C)C#N)cc2)c2c3cc(-c4cnc5ccccc5c4)ccc3ncc21` + Cc1cc([N+](=O)[O-])ccc1NS(=O)(=O)c1cc(Cl)ccc1Cl [FH535] (first compound 0.02 µM, partner dose 5 µM) were 55.4%, 55.7%, 52.5% and 70.8%.
The matching figures for `COc1ccc(C2=N[C@@H](c3ccc(Cl)cc3)[C@@H](c3ccc(Cl)cc3)N2C(=O)N2CCNC(=O)C2)c(OC(C)C)c1` [Nutlin-3] + COc1ccc(COc2ccc(Cc3cnc(N)nc3N)cc2OC)cc1 [GW2580] (first compound 0.5 µM, partner dose 5 µM): 70.4%, 71.6%, 93.1% and 75.6%.
Taken in the same sequence, the figures for `Cn1c(=O)n(-c2ccc(C(C)(C)C#N)cc2)c2c3cc(-c4cnc5ccccc5c4)ccc3ncc21` + COc1cc(N2CCC(N3CCN(C)CC3)CC2)ccc1Nc1ncc(Cl)c(Nc2ccccc2S(=O)(=O)C(C)C)n1 [NVP-TAE684] (first compound 0.02 µM, partner dose 0.4 µM) were 52.2%, 49.8%, 52.4% and 64%.
As to `Cc1cc(Nc2cc(N3CCN(C)CC3)nc(/C=C/c3ccccc3)n2)n[nH]1` + COc1ccc(-c2ccc3c(N4CCOCC4)nc(N4C[C@@H](C)O[C@@H](C)C4)nc3n2)cc1CO [KU0063794] (first compound 0.2 µM, partner dose 0.1 µM), the cell count with 501Mel came out at 72.4%; in the assay with A101D, 75.8%; in the assay on A2058, 65.7%; with A375 it was 86.9%.
The matching figures for `Cc1cc(Nc2cc(N3CCN(C)CC3)nc(/C=C/c3ccccc3)n2)n[nH]1` + CCCCCCCCCCCC1=C(O)C(=O)C=C(O)C1=O [Embelin] (first compound 0.2 µM, partner dose 6 µM): 75%, 93.7%, 110% and 100%.
Taken in the same sequence, the figures for `Cn1c(=O)n(-c2ccc(C(C)(C)C#N)cc2)c2c3cc(-c4cnc5ccccc5c4)ccc3ncc21` + O=C(Nc1ccccc1)c1cc([N+](=O)[O-])ccc1Cl [GW9662] (first compound 0.02 µM, partner dose 10 µM) were 83%, 68%, 80.1% and 83.2%.
Taken in the same sequence, the figures for `Cn1c(=O)n(-c2ccc(C(C)(C)C#N)cc2)c2c3cc(-c4cnc5ccccc5c4)ccc3ncc21` + N#Cc1c(O)c2c(-c3ccc(-c4ccccc4O)cc3)csc2[nH]c1=O [A769662] (first compound 0.02 µM, partner dose 10 µM) were 67.2%, 74.9%, 71.4% and 108%.
With `Cc1cn(-c2cc(NC(=O)c3ccc(C)c(Nc4nccc(-c5cccnc5)n4)c3)cc(C(F)(F)F)c2)cn1` [nilotinib] + O=C1NC(=O)/C(=C/c2ccc(-c3ccc(F)cc3O)o2)S1 [AS252424] (first compound 1 µM, partner dose 5 µM), the cell count in the assay with 501Mel is 115%; with A101D it was 116%; with A2058, 89.5%; in the assay on A375 it was 133%.
Taken in the same sequence, the figures for `Cc1cn(-c2cc(NC(=O)c3ccc(C)c(Nc4nccc(-c5cccnc5)n4)c3)cc(C(F)(F)F)c2)cn1` [nilotinib] + O=S(=O)(c1ccccc1)N(CC(F)(F)F)c1ccc(C(O)(C(F)(F)F)C(F)(F)F)cc1 [T0901317] (first compound 1 µM, partner dose 7 µM) were 70.3%, 82.9%, 116% and 116%.
The matching figures for `COc1ccc(C2=N[C@@H](c3ccc(Cl)cc3)[C@@H](c3ccc(Cl)cc3)N2C(=O)N2CCNC(=O)C2)c(OC(C)C)c1` [Nutlin-3] + COC(=O)c1sccc1S(=O)(=O)Nc1ccc(Nc2ccccc2)cc1OC [GSK0660] (first compound 0.5 µM, partner dose 5 µM): 98.7%, 58.2%, 96.2% and 86.1%.
Taken in the same sequence, the figures for `Cc1cn(-c2cc(NC(=O)c3ccc(C)c(Nc4nccc(-c5cccnc5)n4)c3)cc(C(F)(F)F)c2)cn1` [nilotinib] + Cc1cc([N+](=O)[O-])ccc1NS(=O)(=O)c1cc(Cl)ccc1Cl [FH535] (first compound 1 µM, partner dose 5 µM) were 87.8%, 67.9%, 111% and 100%.
